Consider 153 variants from a collection of fitness landscapes (doi:10.1126/science.1257360).

This is one part of the list.

The labels stand for the following.
B1: PhoQ; a variant is named by its letters at X, in order, P23837 (parent)
chain: MKKLLRLFFPLSLRVRFLLATAAVVLVLSLAYGMVALIGYSVSFDKTTFRLLRGESNLFYTLAKWENNKLHVELPENIDKQSPTMTLIYDENGQLLWAQRDVPWLMKMIQPDWLKSNGFHEIEADVNDTSLLLSGDHSIQQQLQEVREDDDDAEMTHSVAVNVYPATSRMPKLTIVVVDTIPVELKSSYMVWSWFIYVLSANLLLVIPLLWVAAWWSLRPIEALAKEVRELEEHNRELLNPATTRELTSLVRNLNRLLKSERERYDKYRTTLTDLTHSLKTPLXXLQXXLRSLRSEKMSVSDAEPVMLEQISRISQQIGYYLHRASMRGGTLLSRELHPVAPLLDNLTSALNKVYQRKGVNISLDISPEISFVGEQNDFVEVMGNVLDNACKYCLEFVEISARQTDEHLYIVVEDDGPGIPLSKREVIFDRGQRVDTLRPGQGVGLAVAREITEQYEGKIVAGESMLGGARMEVIFGRQHSAPKDE

In the test the parent is B1. Briefly: enrichment ratio after two sorts for PhoP signalling (ratio (wild type AVST 3.29)); higher = more functional. Particulars: with PhoP (E. coli).
For the variant HRCY, the enrichment ratio was at most 0.25.

On to GQAW, for which the enrichment ratio is at most 0.25.

Consider DHGD, for which the enrichment ratio is at most 0.25.

On to HWQN, for which the enrichment ratio was at most 0.25.

Regarding IRMP, the enrichment ratio is at most 0.25.

Turning to SRNH, the enrichment ratio was at most 0.25.

On to YCVA, for which the enrichment ratio was at most 0.25.

On to MSRD, for which the enrichment ratio is at most 0.25.

On to DGFD, for which the enrichment ratio is at most 0.25.

KIKR: the enrichment ratio is at most 0.25.

Turning to EDSN, the enrichment ratio was at most 0.25.

In the case of SQLV, the enrichment ratio is 11.8.

On to TDIK, for which the enrichment ratio was at most 0.25.

Turning to LADE, the enrichment ratio was at most 0.25.

Take ICRV: the enrichment ratio was at most 0.25.

Take RDED: the enrichment ratio was at most 0.25.

Consider DSDE, for which the enrichment ratio is at most 0.25.

Turning to NSGN, the enrichment ratio was at most 0.25.

For NPLQ, the enrichment ratio is at most 0.25.

For the variant ERMC, the enrichment ratio is at most 0.25.

On to IPQP, for which the enrichment ratio was at most 0.25.

With CHPW, the enrichment ratio is at most 0.25.

For ELKG, the enrichment ratio was at most 0.25.

Regarding LWCG, the enrichment ratio was at most 0.25.

Turning to YDKY, the enrichment ratio was at most 0.25.

Take YQLV: the enrichment ratio was at most 0.25.

For AATA, the enrichment ratio was found to be 2.35.

Regarding YSTD, the enrichment ratio was at most 0.25.

On to PWFD, for which the enrichment ratio is at most 0.25.

Regarding FEDV, the enrichment ratio is at most 0.25.

As to TGLL, the enrichment ratio is 12.6.

For the variant MEKH, the enrichment ratio was at most 0.25.

Regarding PFCA, the enrichment ratio is at most 0.25.

With ENLS, the enrichment ratio is at most 0.25.

For RKIC, the enrichment ratio was at most 0.25.

As for TMQP, the enrichment ratio was at most 0.25.

As for FETW, the enrichment ratio was at most 0.25.

On to SSHG, for which the enrichment ratio is at most 0.25.

For the variant NLEF, the enrichment ratio is at most 0.25.

Turning to GHQP, the enrichment ratio is at most 0.25.

As to RDSY, the enrichment ratio was at most 0.25.

Turning to PWRV, the enrichment ratio is at most 0.25.

In the case of DVWW, the enrichment ratio was at most 0.25.

Take IYTV: the enrichment ratio is at most 0.25.

For the variant AGPK, the enrichment ratio was at most 0.25.

For the variant DQIN, the enrichment ratio is at most 0.25.

With LWKF, the enrichment ratio was at most 0.25.

As for PPDY, the enrichment ratio was at most 0.25.

KICN: the enrichment ratio was at most 0.25.

As to GKFP, the enrichment ratio is at most 0.25.

In the case of HHCF, the enrichment ratio was at most 0.25.

As to RCPK, the enrichment ratio is at most 0.25.

Regarding LELN, the enrichment ratio was at most 0.25.

In the case of WTQH, the enrichment ratio is at most 0.25.

As to PHDR, the enrichment ratio is at most 0.25.

RKAY: the enrichment ratio was at most 0.25.

Turning to VHYR, the enrichment ratio is at most 0.25.

For the variant TRWD, the enrichment ratio was at most 0.25.

Turning to RVVV, the enrichment ratio was at most 0.25.

Turning to TNLH, the enrichment ratio stood at 1.37.

In the case of FAME, the enrichment ratio is at most 0.25.

As to EGFR, the enrichment ratio is at most 0.25.

In the case of AFCT, the enrichment ratio was at most 0.25.

Take ICSL: the enrichment ratio came to 2.22.

Consider HGFE, for which the enrichment ratio was at most 0.25.

Regarding LHGI, the enrichment ratio was at most 0.25.

On to RIYP, for which the enrichment ratio is at most 0.25.

NKMA: the enrichment ratio was at most 0.25.

Turning to MISI, the enrichment ratio came out at 9.53.

Consider HMVY, for which the enrichment ratio is at most 0.25.

Consider YSYQ, for which the enrichment ratio is at most 0.25.

In the case of MYVC, the enrichment ratio is at most 0.25.

In the case of ETPK, the enrichment ratio was at most 0.25.

Turning to MLAG, the enrichment ratio is at most 0.25.

For the variant YPML, the enrichment ratio is at most 0.25.

As to DMGS, the enrichment ratio was at most 0.25.

As for VSHQ, the enrichment ratio was at most 0.25.

As for FKFC, the enrichment ratio is at most 0.25.

In the case of NRFL, the enrichment ratio is at most 0.25.

In the case of TPMM, the enrichment ratio is at most 0.25.

Turning to ECIL, the enrichment ratio was at most 0.25.

Turning to DAYV, the enrichment ratio is at most 0.25.

Take PKWT: the enrichment ratio was at most 0.25.

VSLN: the enrichment ratio was found to be 0.911.

Consider WRKC, for which the enrichment ratio was at most 0.25.

As to QNFR, the enrichment ratio is at most 0.25.

Turning to MLDK, the enrichment ratio is at most 0.25.

For YACK, the enrichment ratio was at most 0.25.

As to AFWL, the enrichment ratio is at most 0.25.

As to VVIN, the enrichment ratio is at most 0.25.

As to FVVA, the enrichment ratio was at most 0.25.

As for IKWR, the enrichment ratio was at most 0.25.

In the case of SHML, the enrichment ratio worked out at 6.64.

On to GSAT, for which the enrichment ratio amounted to 8.69.

For the variant CHTF, the enrichment ratio is at most 0.25.

As for LYRV, the enrichment ratio was at most 0.25.

For YQVQ, the enrichment ratio is at most 0.25.

For the variant YKMF, the enrichment ratio was at most 0.25.

Consider VSEV, for which the enrichment ratio is at most 0.25.

For the variant YHKM, the enrichment ratio was at most 0.25.

As to QVPN, the enrichment ratio was at most 0.25.

Regarding GKPA, the enrichment ratio is at most 0.25.

Turning to FGYM, the enrichment ratio was at most 0.25.

For EMCK, the enrichment ratio is at most 0.25.

In the case of AHSW, the enrichment ratio is at most 0.25.

With TEQD, the enrichment ratio is at most 0.25.

With LHFT, the enrichment ratio was at most 0.25.

Regarding KQPE, the enrichment ratio is at most 0.25.

Regarding AWRC, the enrichment ratio is at most 0.25.

On to IWCI, for which the enrichment ratio was at most 0.25.

As to NSRY, the enrichment ratio was at most 0.25.

For the variant EAVD, the enrichment ratio was at most 0.25.

Consider EGYA, for which the enrichment ratio was at most 0.25.

As to VIRV, the enrichment ratio was at most 0.25.

On to SATN, for which the enrichment ratio was determined as 6.01.

On to EQAP, for which the enrichment ratio was at most 0.25.

With VSFG, the enrichment ratio is 0.292.

Regarding AQWM, the enrichment ratio is at most 0.25.

As for GGML, the enrichment ratio was found to be 15.7.

MNCF: the enrichment ratio was at most 0.25.

For PYFR, the enrichment ratio was at most 0.25.

For LYYM, the enrichment ratio was at most 0.25.

For the variant QIGK, the enrichment ratio is at most 0.25.

As to IKSW, the enrichment ratio was at most 0.25.

Regarding CINT, the enrichment ratio amounted to 5.01.

For the variant WMKY, the enrichment ratio was at most 0.25.

Consider INFH, for which the enrichment ratio is at most 0.25.

In the case of QSYY, the enrichment ratio was determined as 8.21.

HSIP: the enrichment ratio is at most 0.25.

In the case of TDPE, the enrichment ratio is at most 0.25.

Regarding FYNN, the enrichment ratio was at most 0.25.

In the case of MQLM, the enrichment ratio stood at 1.1.

Regarding TVTS, the enrichment ratio was 5.87.

On to MSCP, for which the enrichment ratio was at most 0.25.

On to EYEL, for which the enrichment ratio is at most 0.25.

As to VARH, the enrichment ratio is at most 0.25.

On to GPLK, for which the enrichment ratio is at most 0.25.

Take ESMT: the enrichment ratio was at most 0.25.

For AAFI, the enrichment ratio is at most 0.25.

As to VIDD, the enrichment ratio was at most 0.25.

With VKGS, the enrichment ratio is at most 0.25.

For PCYH, the enrichment ratio was at most 0.25.

On to WFFT, for which the enrichment ratio is at most 0.25.

Consider GFYI, for which the enrichment ratio was at most 0.25.

Consider SNIC, for which the enrichment ratio amounted to 4.56.

Consider RFHN, for which the enrichment ratio is at most 0.25.

With IKWK, the enrichment ratio is at most 0.25.

Take SGAV: the enrichment ratio came to 8.75.

As for SGME, the enrichment ratio was 9.9.

For PHDL, the enrichment ratio was at most 0.25.

On to VTSV, for which the enrichment ratio was at most 0.25.

As for IVGK, the enrichment ratio is at most 0.25.

As to MRSK, the enrichment ratio was at most 0.25.
